Results on 49 compounds are retold here after article PMC6919601, “Identification of Plasmodium dipeptidyl aminopeptidase allosteric inhibitors by high throughput screening” (PLoS ONE, 2019).

About 230 (0.21%) of roughly 110,000 compounds showed an effect of 50% or more. This is one part of the list.
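Also: 30 min substrate incubation versus DMSO and 10 µM JCP410 controls.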

DPAP1, sequence (Q8IIJ9 whole entry, looked up): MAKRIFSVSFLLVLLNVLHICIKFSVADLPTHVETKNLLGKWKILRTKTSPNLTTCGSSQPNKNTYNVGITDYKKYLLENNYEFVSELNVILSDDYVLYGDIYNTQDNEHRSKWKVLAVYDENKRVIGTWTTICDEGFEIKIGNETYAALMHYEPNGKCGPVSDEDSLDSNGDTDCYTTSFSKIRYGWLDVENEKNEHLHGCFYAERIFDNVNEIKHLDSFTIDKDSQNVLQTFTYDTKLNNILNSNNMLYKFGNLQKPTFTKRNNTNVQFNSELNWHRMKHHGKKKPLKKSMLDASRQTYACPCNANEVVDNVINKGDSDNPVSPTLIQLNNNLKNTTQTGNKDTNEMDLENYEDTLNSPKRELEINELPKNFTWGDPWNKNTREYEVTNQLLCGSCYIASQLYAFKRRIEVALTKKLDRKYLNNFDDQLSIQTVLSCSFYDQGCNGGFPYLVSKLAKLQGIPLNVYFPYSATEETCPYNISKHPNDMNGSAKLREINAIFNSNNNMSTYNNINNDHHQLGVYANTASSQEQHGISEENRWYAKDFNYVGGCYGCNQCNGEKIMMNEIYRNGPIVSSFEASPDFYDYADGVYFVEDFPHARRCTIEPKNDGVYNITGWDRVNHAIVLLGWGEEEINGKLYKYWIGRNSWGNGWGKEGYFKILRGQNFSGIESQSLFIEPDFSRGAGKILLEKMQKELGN

This test addresses DPAP1 (Plasmodium falciparum, UniProt Q8IIJ9). As to the kind of experiment: primary screen, percent inhibition; read by cleavage of a fluorogenic dipeptide substrate; higher = more effect of the substance. On the set-up: species or system P. falciparum D10 trophozoite lysates; single well.
Regarding `Cn1c(O)c(/C=N/c2cccc(CO)c2)c2ccccc21`, the “% Inhibition @ 10 uM” value was -7.08%.

As for `CCC[C@H](NC(=O)C1(NC(=O)N2CCN(C(C)(C)C)CC2)CCCCC1)C(=O)c1nnc(-c2ccc(OC)cc2)o1`, the “% Inhibition @ 10 uM” value is on record as -4.72%.

With `CCOc1ccc(-c2cc(C(=O)N3CCCC3)c3ccccc3n2)cc1`, the “% Inhibition @ 10 uM” value was 0.316%.

For the compound `CCN(CC)S(=O)(=O)c1cc(C(=O)ONC(=O)c2ccc(OC(F)F)cc2)ccc1Cl`, the “% Inhibition @ 10 uM” value turned out to be 3.66%.

In the case of `Cc1ccc(Cn2c(C(=O)O)c(CNC(C)CCc3ccccc3)c3ccccc32)cc1` (stereo not shown), the “% Inhibition @ 10 uM” value is listed as 6.59%.

On to `Cc1cccc(OCCCCCN2CCCCC2)c1C`, for which the “% Inhibition @ 10 uM” value is listed as -1.25%.

For the compound `CCc1ccc(C2C(C(=O)c3ccc4c(c3)OCCO4)=C(O)C(=O)N2Cc2cccnc2)cc1` (stereo not shown), the “% Inhibition @ 10 uM” value amounted to 1.64%.

Take `COc1ccc2[nH]c3c(c2c1)CCNC3c1cc(OC)c(OC)c(OC)c1` (stereo not shown): the “% Inhibition @ 10 uM” value is given as -4.93%.

Consider `CN(CCNC(=O)c1cc2ccc3cccnc3c2[nH]1)C1CCCCC1`, for which the “% Inhibition @ 10 uM” value was determined as 5.73%.

Regarding `Cc1ccc(S(=O)(=O)Nc2ccnc(C(=O)Nc3nc4ccc(C)cc4s3)c2)cc1`, the “% Inhibition @ 10 uM” value was -2.19%.

For `CCOC(=O)C1=C(C)N=c2s/c(=C\c3ccco3)c(=O)n2C1c1ccccc1` (stereo not shown), the “% Inhibition @ 10 uM” value is on record as 3.05%.

For `COc1ccc(C2=NN3C(C2)c2ccccc2OC32CCC(C)CC2)cc1OC` (stereo not shown), the “% Inhibition @ 10 uM” value is given as -3.14%.

In the case of `COCCCNc1sc(S(=O)(=O)c2ccc(C)cc2)nc1S(=O)(=O)c1ccc(C)cc1`, the “% Inhibition @ 10 uM” value came out at 5.5%.

For `Cc1ccccc1S(=O)(=O)Cc1ccc(C(=O)N2CCN(c3ncccn3)CC2)o1`, the “% Inhibition @ 10 uM” value is reported as 3.93%.

Consider `CCOc1cc2c(cc1/C=C1/SC(Nc3cccc(C)c3)=NC1=O)OCO2`, for which the “% Inhibition @ 10 uM” value is listed as 0.851%.

As for `CCc1ccccc1NC(=O)CN1CCCC(C)C1` (stereo not shown), the “% Inhibition @ 10 uM” value amounted to 2.76%.

For `COCCNC(=O)C1=C(C)C(=O)OC12CCN(C(C)=O)CC2`, the “% Inhibition @ 10 uM” value is -0.769%.

In the case of `CCCC1CCc2c(sc(NC(=O)c3ccc(Br)o3)c2C(N)=O)C1` (stereo not shown), the “% Inhibition @ 10 uM” value is on record as 0.189%.

With `Cc1cccc(NC(=O)c2cccc3c2C(=O)c2ccccc2-3)c1`, the “% Inhibition @ 10 uM” value turned out to be 3.1%.

As to `Cc1[nH]nc2c1C(c1ccc(OCc3cccc(F)c3)cc1)C(C#N)=C(N)O2` (stereo not shown), the “% Inhibition @ 10 uM” value is reported as -3.46%.

As to `COc1ccc(/C(O)=C/C=N/c2cc(Cl)ccc2Cl)cc1`, the “% Inhibition @ 10 uM” value is given as -0.725%.

Regarding `CCO/C(O)=C1\C(C)=NC(=S)NC1c1ccc(Cl)cc1Cl` (stereo not shown), the “% Inhibition @ 10 uM” value is -0.597%.

As for `COc1cc2ncc(C(=O)c3ccccc3)c(N3CCCCC3)c2cc1OC`, the “% Inhibition @ 10 uM” value was -1.53%.

As to `CCn1nc(C)c(N2C(=O)c3cccc4c(Br)ccc(c34)C2=O)c1C`, the “% Inhibition @ 10 uM” value came out at 2.09%.

For `CN1CCC(N2CCCC(C(N)=O)C2)CC1` (stereo not shown), the “% Inhibition @ 10 uM” value was determined as 1.43%.

As to `COc1ccc(CN2CCN(c3cccc(C(F)(F)F)c3)CC2)c(OC)c1`, the “% Inhibition @ 10 uM” value worked out at 3.1%.

Consider `CC(=O)c1cccc(NC(=O)c2cccs2)c1`, for which the “% Inhibition @ 10 uM” value is listed as -2.28%.

In the case of `N#CCNC(=O)C(NC(=O)c1ccccc1)SC1CCCCC1` (stereo not shown), the “% Inhibition @ 10 uM” value is recorded as -1.83%.

Take `CCN(CCN(C)C)Cc1ccc(Cl)c(Cl)c1`: the “% Inhibition @ 10 uM” value is 1.62%.

For `NC(=O)C1CCCN(CC(c2ccccc2)c2ccccc2)C1` (stereo not shown), the “% Inhibition @ 10 uM” value amounted to 2.1%.

With `COc1ccccc1CCNC(=O)c1nc(CS(=O)(=O)c2ccccc2)no1`, the “% Inhibition @ 10 uM” value was determined as 5.45%.

For the compound `COc1ccc(NC(=O)Nc2ccccc2C(F)(F)F)cc1`, the “% Inhibition @ 10 uM” value is listed as -5.65%.

Regarding `CN1C2CCC1CC(NCCN1CCOCC1)C2` (stereo not shown), the “% Inhibition @ 10 uM” value is on record as -0.0908%.

Consider `Cc1ccc2c(c1)c1c(n2C)C(C(N)=O)CCC1` (stereo not shown), for which the “% Inhibition @ 10 uM” value was -1.69%.

In the case of `CCOC(=O)N1CCN(c2ncnc3c2c(-c2ccccc2)cn3-c2ccccc2)CC1`, the “% Inhibition @ 10 uM” value stood at 0.925%.

As for `CC1(C)CC(=O)C2=C(C1)N(c1cccnc1)C(N)=C(C#N)C2c1ccc(C(F)(F)F)cc1` (stereo not shown), the “% Inhibition @ 10 uM” value was 0.674%.

For `O=C(Nc1ccc2oc(-c3ccc(Cl)cc3Cl)nc2c1)c1cccc2ccccc12`, the “% Inhibition @ 10 uM” value was -0.771%.

Consider `COc1ccc(Cc2nn3c(-c4ccc(F)cc4)nnc3s2)cc1`, for which the “% Inhibition @ 10 uM” value is given as 2.89%.

Turning to `COc1ccccc1/C=C1N=C(/C=C/c2ccccc2OC)OC\1=O`, the “% Inhibition @ 10 uM” value amounted to 13.2%.

In the case of `CCn1cc(/C=C(\NC(=O)c2cc(OC)c(OC)c(OC)c2)C(=O)NCCO)c2ccccc21`, the “% Inhibition @ 10 uM” value is recorded as 1.64%.

On to `CC(C)=CCCCCCCN(C)CCc1ccccn1`, for which the “% Inhibition @ 10 uM” value was -0.292%.

For the compound `CCc1c(C)sc(NC(=O)Nc2ccc(Cl)c(Cl)c2)c1C(N)=O`, the “% Inhibition @ 10 uM” value is given as -1.88%.

Turning to `CC(=O)c1ccccc1NC(=O)C1CCC(C(=O)Nc2ccccc2C(C)=O)S1` (stereo not shown), the “% Inhibition @ 10 uM” value is reported as -1.91%.

`CCOc1cc(C(=O)N2CCC3(CC2)N=C(c2ccc(Cl)cc2)C(=O)N3)cc(OCC)c1OCC`: the “% Inhibition @ 10 uM” value came out at 18.4%.

Regarding `CC(C)OP(=O)(OC(C)C)C(Nc1ccc2ccccc2c1)c1ccccc1` (stereo not shown), the “% Inhibition @ 10 uM” value is on record as 4.12%.

With `CC1(C)CNC(C)(C)C2c3ccccc3NC21` (stereo not shown), the “% Inhibition @ 10 uM” value is listed as -1.88%.

As to `CCN1CCC(N2CCCC(C(=O)N(CC)CC)C2)CC1` (stereo not shown), the “% Inhibition @ 10 uM” value was determined as 2.7%.

Consider `Cc1ccc(S(=O)(=O)N(CC(=O)N2CCCCCC2)Cc2ccc(Br)cc2)cc1`, for which the “% Inhibition @ 10 uM” value is given as 1.86%.

Consider `CCN(CC)C(=O)C1=C(C)N=C(S)NC1c1c(F)cccc1Cl` (stereo not shown), for which the “% Inhibition @ 10 uM” value is reported as -2.72%.
